Results reported in US20110212091A1 (LICENTIA, published 2011).

Target: HA-tagged MT1-MMP (human, UniProt P50281 part only)
Assay: co-immunoprecipitation from co-transfected cells

binding result: binds
B1: FGFR4 R388, V5-His tagged (FGFR4R388-V5-His) (receptor, not shown: small tags and cut ends)
chain: not shown
notes: Expressed in transfected MDA-MB-231 or COS-1 cells and analysed from cell lysates; also called FGFR4 Arg388; V5-tagged FGFR4 R388
